Measurements reported in PubChem BioAssay (Tox21).
The shares of active, inactive and inconclusive entries below differ from those in the screen. No potency is given beside an inconclusive call; the fits are too rough. The source made the active and inactive calls. The call rests on the fitted dose curve; in most records, active means well fitted cell-killing curve with a large enough effect in the repeat runs; inconclusive means weak or mixed curves, or effect the other way; inactive means no such curve, though single readings can be large or run the other way.

assay: qHTS assay to identify small molecule agonists of the vitamin D receptor (VDR) signaling pathway - cell viability counter screen (AID 743224); conditions: VDR-bla HEK293T viability, CellTiter-Glo luminescence, 16 h; activity change, negative = cytotoxicity: at 62.6 µM (top of the series); further: nearly all actives have a fitted effect of over 50% in size
Excerpt: U.S. Tox21 Program National Center for Advancing Translational Sciences [NCATS] NIH Chemical Genomics Center [NCGC] U.S. Environmental Protection Agency [EPA] National Institutes of Environmental Health Sciences [NIEHS] National Toxicology Program [NTP] U.S. Food and Drug Administration [FDA] Tox21 Assay Overview: The vitamin D receptor (VDR), a member of nuclear hormone receptor superfamily, plays a critical role in calcium homeostasis and bone metabolism. It is also involved in cell differentiation and growth, and thrombogenicity. […] The cytotoxicity of the Tox21 compound library against the VDR-bla cell line was tested in parallel by measuring the cell viability using CellTiter-Glo assay (Promega, Madison, WI) in the same wells.
Tox21 Assay Protocol Summary: VDR-bla cells were dispensed at 2,000 cells/6 uL/well into black wall/clear-bottom 1536-well plates using a Multidrop Combi (Thermo Fisher Scientific, Waltham, MA) dispenser. After the assay plates were incubated at a 37C and 5% CO2 for 4 h, 23 nL of compounds dissolved in DMSO, positive controls or DMSO only was transferred to the assay plate by a Pintool station (Kalypsys, San Diego, CA). The plates were incubated at 37C and 5% CO2 for 16 h. After 1 uL of LiveBLAzerTM B/G FRET substrate was added using a Bioraptr Flying Reagent Dispenser (FRD) workstation (Beckman Coulter, Indianapolis, IN, USA), the plates were incubated at room temperature for 2 h, and fluorescence intensity was measured by an Envision plate reader (PerkinElmer, Shelton, CT). For cell viability readout that measures cytotoxicity, 3 ul/well of CellTiter-Glo reagent was added into the assay plates using a FRD. After 30 min incubation at room temperature, the luminescence intensity in the plates was measured using a ViewLux (PerkinElmer) plate reader.
On the % scale 0 is the no-effect control and ±100 the full control effect; potency means the concentration at half of the fitted maximal effect; tags describe the fitted curve by direction and shape.

Row | Structure (SMILES) | Potency | activity change, negative = cytotoxicity
1 | CC(C)(Cc1c[nH]c2ccccc12)NCC(O)COc1ccccc1C#N (stereo not given) | inconclusive [cytotoxic, partial curve, poor fit] | –
2 | Cc1cn([C@H]2C[C@H](N=[N+]=[N-])[C@@H](CO)O2)c(=O)[nH]c1=O | inactive | –
3 | Cc1nccn1-c1ccc(Sc2cccc(C3(C(N)=O)CCOCC3)c2)cc1 | inconclusive [cytotoxic, partial curve, poor fit] | –
4 | Oc1cc(Cl)cc(Cl)c1Cl | inconclusive [cytotoxic, single point] | –
5 | CC(C)C(OC(=O)c1ccccc1)C(C)(C)COC(=O)c1ccccc1 (stereo not given) | inconclusive [cytotoxic] | –
6 | OC(CCN1CCCCC1)(c1ccccc1)c1ccccc1 | – | inconclusive: 3.67%
7 | CCC(CN)=C(c1ccccc1)c1ccccc1 | inconclusive [cytotoxic, partial curve] | –
8 | Nc1cccc(O)c1 | inconclusive [cytotoxic, partial curve, poor fit] | –
9 | Cc1ccc(-n2nc(C(C)(C)C)cc2NC(=O)Nc2ccc(OCCN3CCOCC3)c3ccccc23)cc1 | – | inactive: -21.5%
10 | COc1cc(NCc2ccc3nc(N)nc(N)c3c2C)cc(OC)c1OC | active: 0.15 µM | –
11 | CO[C@H]1C=CO[C@@]2(C)Oc3c(C)c(O)c4c(O)c(c5c(c4c3C2=O)=NC2(CCN(CC(C)C)CC2)N=5)NC(=O)/C(C)=C\C=C/[C@H](C)[C@H](O)[C@@H](C)[C@@H](O)[C@@H](C)[C@H](OC(C)=O)[C@@H]1C | inconclusive [cytotoxic, single point] | –
12 | COCC(C)N (stereo not given) | inconclusive [cytotoxic, full curve] | –
13 | O=C(O)[C@H](O)[C@@H](O)[C@H](O[C@@H]1O[C@H](CO)[C@H](O)[C@H](O)[C@H]1O)[C@H](O)CO | – | inactive: -0.88%
14 | CC1=C(/C=C/C(C)=C/C=C/C(C)=C/CO)C(C)(C)CCC1 | inconclusive [cytotoxic, single point] | –
15 | Fc1ccc([C@@H]2CCNC[C@H]2COc2ccc3c(c2)OCO3)cc1 | inconclusive [cytotoxic, partial curve] | –
16 | CC[C@@H](CO)NCCN[C@@H](CC)CO | inconclusive [cytotoxic, single point] | –
17 | O=C(/C=C/c1ccc(O)c(O)c1)O[C@@H](C(=O)O)[C@@H](OC(=O)/C=C/c1ccc(O)c(O)c1)C(=O)O | – | inactive: 5.39%
18 | CCCCCC=CCC=CCCCCCCCC(=O)OCC | active: 29.8 µM | –
19 | CCc1oc2ccccc2c1C(=O)c1cc(Br)c(O)c(Br)c1 | inconclusive [cytotoxic, partial curve, poor fit] | –
20 | C=C(C)C1CC=C(C)C(=O)C1 (stereo not given) | inconclusive [rising, full curve, poor fit] | –

Row | Structure (SMILES) | Potency | activity change, negative = cytotoxicity
21 | CCCOC(=O)c1c(Cl)c(Cl)c(Cl)c(Cl)c1C(=O)OCCC | – | inactive: 0.0315%
22 | O=C1CCCCCCCCCCOCCCCO1 | inconclusive [cytotoxic, partial curve, poor fit] | –
23 | Nc1cccc2c(N)cccc12 | – | inactive: 1.93% [at 81.1 µM]
24 | COC1=CC(=O)C[C@@H](C)[C@]12Oc1c(Cl)c(OC)cc(OC)c1C2=O | inconclusive [cytotoxic, partial curve, poor fit] | –
25 | CCCCOC(=O)c1ccc(O)cc1 | inconclusive [cytotoxic, partial curve, poor fit] | –
26 | O=[N+]([O-])C1(Br)COCOC1 | inconclusive [cytotoxic, single point] | –
27 | Sc1nc2ccccc2s1 | inconclusive [cytotoxic, full curve] | –
28 | S=C([S-])NCCNC(=S)[S-].S=C([S-])NCCNC(=S)[S-].[Mn+2].[Zn+2] | inconclusive [cytotoxic, partial curve, poor fit] | –
29 | CCCCOC(=O)c1ccccc1 | – | inactive: 16.6%
30 | NCCC(O)(P(=O)(O)O)P(=O)(O)O | inconclusive [rising, full curve] | –
31 | C=C(C#N)C(=O)OCC | inactive | –
32 | C[C@@]12CCC[C@H]1[C@@H]1CC[C@H]3C[C@@H](O)CC[C@]3(C)[C@H]1CC2 | inconclusive [cytotoxic, single point] | –
33 | [Cu+] | inconclusive [cytotoxic, partial curve, poor fit] | –
34 | NC(=O)NC(N)=O | inconclusive [cytotoxic, single point] | –
35 | Cc1ccc(OC(=O)CC(C)C)cc1 | inconclusive [cytotoxic, partial curve, poor fit] | –
36 | O=C(OCC(O)CO)c1ccccc1Nc1ccnc2cc(Cl)ccc12 (stereo not given) | inconclusive [cytotoxic, single point] | –
37 | C/C=C\C/C=C/CCCCCCCCOC(C)=O | inconclusive [cytotoxic, single point] | –
38 | COC(=O)c1ccc(C(=O)OC)cc1 | inconclusive [rising, partial curve, poor fit] | –
39 | CC(=O)CCC1=C(C)CCCC1(C)C | inconclusive [cytotoxic, partial curve, poor fit] | –
40 | COc1cc(C(=O)N2CCCCCCC2)cc(OC)c1OC | – | inactive: 16.2%
